# PubChem BioAssay AID504339 (National Center for Advancing Translational Sciences (NCATS), 2011)
# Hit rate of the full screen: of about 390,000 compounds, about 17,000 (4.4%) were called active. The inconclusive results got no clear call from the source; some entries with a clear call stand among them for comparison. The call rests on the fitted dose curve; in most records, active means well fitted inhibition curve with a large enough effect; inconclusive means small, poorly fitted or top-dose-only effect; inactive means no such curve, though single readings can be large or run the other way. Potencies of inconclusive entries are doubtful fits and often do not repeat.
# Molecular target: Lysine-specific demethylase 4A (Homo sapiens) (UniProt O75164)
# Sequence of UniProt O75164 (O75164 whole entry, looked up, the tested form may be a part): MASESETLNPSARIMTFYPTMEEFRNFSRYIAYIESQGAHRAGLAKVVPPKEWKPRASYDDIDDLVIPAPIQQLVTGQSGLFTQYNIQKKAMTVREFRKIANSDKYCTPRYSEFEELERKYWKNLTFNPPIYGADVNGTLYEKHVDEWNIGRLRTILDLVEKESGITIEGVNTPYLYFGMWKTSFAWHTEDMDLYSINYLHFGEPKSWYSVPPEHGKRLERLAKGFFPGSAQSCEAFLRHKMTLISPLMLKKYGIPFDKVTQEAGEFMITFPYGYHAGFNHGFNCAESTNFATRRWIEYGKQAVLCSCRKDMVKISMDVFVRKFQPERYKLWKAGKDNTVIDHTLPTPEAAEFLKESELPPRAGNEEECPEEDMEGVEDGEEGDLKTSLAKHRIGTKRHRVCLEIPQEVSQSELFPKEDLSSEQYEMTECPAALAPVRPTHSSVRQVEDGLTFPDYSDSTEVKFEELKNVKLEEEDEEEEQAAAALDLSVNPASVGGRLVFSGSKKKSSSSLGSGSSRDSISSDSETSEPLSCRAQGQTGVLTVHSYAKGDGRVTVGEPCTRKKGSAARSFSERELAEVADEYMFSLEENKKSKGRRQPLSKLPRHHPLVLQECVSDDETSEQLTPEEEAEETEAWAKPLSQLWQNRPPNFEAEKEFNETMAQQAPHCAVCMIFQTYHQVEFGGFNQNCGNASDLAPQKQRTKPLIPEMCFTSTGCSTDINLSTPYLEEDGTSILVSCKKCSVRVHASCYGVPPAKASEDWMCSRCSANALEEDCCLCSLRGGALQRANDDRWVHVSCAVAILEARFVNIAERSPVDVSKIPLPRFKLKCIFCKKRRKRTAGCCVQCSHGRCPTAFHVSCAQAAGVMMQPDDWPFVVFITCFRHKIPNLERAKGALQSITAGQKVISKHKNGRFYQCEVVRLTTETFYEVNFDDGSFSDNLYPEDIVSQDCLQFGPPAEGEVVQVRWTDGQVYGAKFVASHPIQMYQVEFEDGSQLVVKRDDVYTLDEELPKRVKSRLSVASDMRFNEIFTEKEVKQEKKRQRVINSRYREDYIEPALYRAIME
# Assay: qHTS Assay for Inhibitors of JMJD2A-Tudor Domain; further: nearly all actives have a fitted effect of over 50% in size
# Conditions: AlphaScreen JMJD2A-Tudor / H3K4me3 peptide binding; activity change, negative = inhibition: at 114 µM (top of the series)
# On the % scale 0 is the no-effect control and ±100 the full control effect; potency means the concentration at half of the fitted maximal effect; tags describe the fitted curve by direction and shape.
Structure (SMILES),Potency,"activity change, negative = inhibition"
COc1ccccc1N1CCN(CC(=O)Nc2ccccc2C(=O)NC(C)c2ccccc2)CC1 (configuration not stated),"inconclusive: 63.1 µM [inhibitor, partial curve, poor fit]",
Nc1ccc(Oc2ccc(Cl)cc2)cc1,"inconclusive: 50.1 µM [inhibitor, partial curve]",
O=C(CCCN1C(=O)/C(=C/c2cccs2)SC1=S)NNC(=O)c1ccncc1,inactive,
COC(=O)COc1ccc2cccc(-n3cnnn3)c2c1,"inconclusive: 50.1 µM [inhibitor, partial curve]",
O=C(NCCc1ccc(Cl)cc1)C1=CC=CN2CCS(=O)(=O)N=C12,inactive,
COCCN1CN=C(Nc2nc3ccccc3o2)NC1,"inconclusive: 17.8 µM [inhibitor, full curve, poor fit]",
CCOc1cc(N)c(Cl)cc1C(=O)NCC1CN(Cc2ccc(F)cc2)CCO1 (configuration not stated),active: 50.1 µM,
COc1cccc(CN2CCN(Cc3cccc4nonc34)CC2CCO)c1 (configuration not stated),"inconclusive: 15.8 µM [inhibitor, full curve]",
COc1cccc(OCCn2cccc2/C=C2/C(=N)N3OC(C)=CC3=NC2=O)c1,inactive,
CCN1CCN(Cc2ccc(NC(=O)Nc3ccc(SC)cc3)cc2)CC1,"inconclusive: 56.2 µM [inhibitor, partial curve]",
C=CCNC(=O)c1c(CSc2ccc(Cl)cc2)noc1C(=O)NCc1ccccc1,inactive,
CCC(C)n1ncn(-c2ccc(N3CCN(c4ccc(OCC5COC(Cn6cncn6)(c6ccc(Cl)cc6Cl)O5)cc4)CC3)cc2)c1=O (configuration not stated),"inconclusive: 7.94 µM [inhibitor, partial curve, poor fit]",
Cc1cc(N=NC(=O)c2ccccc2O)c2ccccc2c1O,"inconclusive: 15.8 µM [inhibitor, partial curve]",
COc1ccc(C(=O)N2CCN(c3nc(C4CC4)nc4sc(C)c(C)c34)CC2)cc1,"inconclusive: 44.7 µM [inhibitor, full curve]",
Cc1c(C(=O)NCc2n[nH]c(=S)n2-c2ccc(F)cc2)cccc1[N+](=O)[O-],active: 39.8 µM,
Cn1c(=O)c2c(nc(SCc3nn[nH]n3)n2Cc2ccccc2F)n(C)c1=O,"inconclusive: 56.2 µM [inhibitor, partial curve]",
CCCc1nnc(SCc2ccc(OC)cc2)n1N,active: 14.1 µM,
COc1ccc(OC(C)C(=O)Nc2cccc(OC)c2)cc1 (configuration not stated),inactive,
CC(C)N(C(=O)CSc1nnc(Cn2nnc3ccccc32)n1C)C(C)C,inactive,
Cc1ccccc1NC(=O)c1cccc2c(=O)c3c([nH]c12)CCCC3,inactive,
COc1ccc(C(=O)Oc2coc(CSc3nnc(NC(=O)c4cccs4)s3)cc2=O)cc1,"inconclusive: 39.8 µM [inhibitor, single point]",
CCC(C)n1c(SCC(=O)N(CC)c2c(N)n(Cc3ccccc3)c(=O)[nH]c2=O)nc2ccccc2c1=O (configuration not stated),inactive,
CC(C)C(NC(=O)c1ccccc1F)C(=O)NCc1ccccc1 (configuration not stated),active: 39.8 µM,
O=C1/C(=C/c2ccc(O)cc2)SC(=S)N1CC1CCCO1 (configuration not stated),"inconclusive: 15.8 µM [inhibitor, partial curve]",

Structure (SMILES),Potency,"activity change, negative = inhibition"
CCOC(=O)c1cc2c(=O)n3cccc(C)c3nc2n(Cc2ccco2)c1=NC(=O)c1cccnc1,"inconclusive: 56.2 µM [inhibitor, partial curve]",
COc1ccc(C(=O)Nc2nnc(S(=O)(=O)N3CCCc4ccccc43)s2)cc1,"inconclusive: 14.1 µM [inhibitor, full curve]",
COc1ccc(C(=O)N2CCN(c3c(C)cccc3C)CC2)cc1OC,"inconclusive: 79.4 µM [inhibitor, partial curve]",
CCNc1nc(NCC)nc(-n2cc(C(=O)c3cc(Cl)ccc3O)cn2)n1,"inconclusive: 2.82 µM [inhibitor, full curve, poor fit]",
CCOc1ccc(N2CCc3c(C)nc(SC)nc32)cc1,inactive,
C=CCn1c(C)cc(C(=O)COC(=O)COc2ccccc2C#N)c1C,"inconclusive: 79.4 µM [inhibitor, partial curve]",
O=C(Oc1cc(=O)oc2c1c(=O)n1c3c(cccc23)CC1)c1ccccc1,"inconclusive: 22.4 µM [inhibitor, full curve]",
O=C1/C(=C/c2cccs2)Sc2ccccc21,"inconclusive: 2.24 µM [inhibitor, full curve]",
NC(=O)CCC(NS(=O)(=O)c1ccc(Cl)cc1)C(=O)NCC1CCCCC1 (configuration not stated),inactive,
C=CCOc1cccc(CNc2ccc3[nH]c(=O)[nH]c3c2)c1,"inconclusive: 56.2 µM [inhibitor, partial curve]",
CNC(=O)COC(=O)c1ccccc1Oc1ccccc1,"inconclusive: 79.4 µM [inhibitor, partial curve]",
Cc1ccc(/C=N/Nc2cc(C)nc(N3CCOCC3)n2)cc1,"inconclusive: 3.98 µM [inhibitor, single point]",
Cc1cc(NC(=S)Nc2ccc(C)c(Cl)c2)n[nH]1,,inconclusive: -37.7% [inhibitor]
CCNc1cc(N2CCN(C3CCCCC3)CC2)c2noc3c2c1C(=O)c1ccccc1-3,active: 50.1 µM,
COc1ccc(Br)cc1CNC(=O)CCSCc1ccc(C)cc1,inactive,
O=C(Nc1ccnn1C1CCN(C2CCOCC2)CC1)c1cccc(F)c1,inactive,
CCOc1ccc(NC(=O)COC(=O)C23CC4CC(CC(C4)C2)C3)c([N+](=O)[O-])c1,"inconclusive: 14.1 µM [inhibitor, full curve]",
COc1cc(NC(=S)NCCCN2CCOCC2)c(OC)cc1NC(=O)c1ccco1,inactive,
O=C(COC(=O)/C=C/c1ccc(Cl)cc1)Nc1ccc2[nH]c(=O)[nH]c2c1,"inconclusive: 31.6 µM [inhibitor, single point]",
O=[N+]([O-])c1cccc(/C=N/n2c(-c3cccnc3)n[nH]c2=S)c1,active: 3.98 µM,
COC(=O)c1[nH]c2ccc(Br)cc2c1NC(=O)CN1CCN(C2CCCCC2)CC1,"inconclusive: 39.8 µM [inhibitor, partial curve]",
Cc1cc(C(=O)N2CCN(S(C)(=O)=O)CC2)cs1,inactive,
Cc1cccnc1NC(=O)NC(=O)c1ccc(C(C)(C)C)s1,inactive,
CNC(=S)NNC(=O)Cn1ccc(C)n1,"inconclusive: 79.4 µM [inhibitor, partial curve]",

Structure (SMILES),Potency,"activity change, negative = inhibition"
Cc1ccc([N+](=O)[O-])cc1S(=O)(=O)N1CCn2cccc2C1c1ccccc1 (configuration not stated),"inconclusive: 20 µM [inhibitor, full curve, poor fit]",
COc1ccc(N2CCN(Cc3cccn3-c3nnc(N4CCN(C5CCCCC5)CC4)s3)CC2)cc1,active: 50.1 µM,
CC1Cc2cc(/C=C3/SC(=S)NC3=O)ccc2O1 (configuration not stated),"inconclusive: 56.2 µM [inhibitor, partial curve]",
O=C(CSc1ncn[nH]1)N1N=C2/C(=C/c3ccco3)CCCC2C1c1ccco1 (configuration not stated),active: 56.2 µM,
CC(Oc1ccc(Br)cc1)C(=O)Nc1ncn[nH]1 (configuration not stated),"inconclusive: 39.8 µM [inhibitor, partial curve, poor fit]",
CC1CCN(c2cc(N3CCN(C(=O)c4ccc(F)c(F)c4)CC3)c([N+](=O)[O-])cc2F)CC1,"inconclusive: 28.2 µM [inhibitor, partial curve]",
COc1cccc(-c2nc(N3CCCCC3C)c3ccccc3n2)c1O (configuration not stated),active: 39.8 µM,
CC(C)Cc1nnc(NC(=O)C2CCN(C(=O)c3ccc(F)cc3)CC2)s1,inactive,
COc1ccc2[nH]c3c(c2c1)CCN1C(=O)C(CC(=O)NCCN2CCOCC2)C[C@H](C(=O)N2CCCCC2)[C@@]31CCc1ccccc1 (some centres not stated),"inconclusive: 44.7 µM [inhibitor, partial curve]",
Cc1cc(NS(=O)(=O)c2ccccc2)c(C)c(Cl)c1O,"inconclusive: 89.1 µM [inhibitor, single point]",
Cc1ccnc(Nc2nc(-c3c(C)nc4sccn34)cs2)c1,"inconclusive: 22.4 µM [inhibitor, partial curve]",
CCOc1ccc(N2Nc3n[nH]c(N)c3N2)cc1,"inconclusive: 39.8 µM [inhibitor, partial curve]",
COC(=O)c1ccccc1NC(=S)NC(=O)c1ccccc1C,inactive,
O=C(CSc1nnc(Cc2cccs2)n1-c1ccccc1)Nc1ccc2c(c1)OCCO2,"inconclusive: 89.1 µM [inhibitor, single point]",
CCCCOc1ccc(/C=C/C(=O)N(CC)CC(=O)Nc2ccc3c(c2)OCCO3)cc1OC,"inconclusive: 50.1 µM [inhibitor, full curve, poor fit]",
OCC#CCSc1nnc(-c2ccc(Br)cc2)o1,inactive,
N#CC1=C2N=C(N)c3ccccc3N2C2=C(C(=O)CCC2)C1c1cccc(Cl)c1 (configuration not stated),"inconclusive: 35.5 µM [inhibitor, partial curve]",
Cc1ccc(NC(=O)N2CC3CCCN3c3ccccc32)c(C)c1 (configuration not stated),active: 50.1 µM,
COc1ccc(NC(=O)c2ccco2)cc1NC(=O)COc1ccc(Cl)c(C)c1,inactive,
CC1CCCC(C)N1C(=O)Cn1cc(/C=C2/C(=O)Nc3ccccc32)c2ccccc21 (configuration not stated),"inconclusive: 56.2 µM [inhibitor, partial curve]",
Cc1ccc(C2(c3ccc(C)cc3)CC2C(=O)Nc2ccc([N+](=O)[O-])cc2O)cc1 (configuration not stated),"inconclusive: 28.2 µM [inhibitor, partial curve]",
Cc1csc(=Nc2ccccc2)n1C,inactive,
Cc1ccc(S(=O)(=O)n2cnc(C)c2)cc1,inactive,
CC(SCc1cc(=O)n2c([nH]c3ccccc32)c1C#N)C(=O)O (configuration not stated),"inconclusive: 22.4 µM [inhibitor, single point]",
